Measured values published in PMC4336329 (PLoS ONE, 2015).
The campaign covered roughly 310,000 compounds. About 14,000 (4.5%) showed an effect of 50% or more. Effects have a minus sign here. Some of the results follow.

Biological target: human ether-à-go-go-related gene (hERG) potassium channel (human, UniProt Q12809)
Assay: primary screen, population patch clamp on CHO cells stably expressing hERG
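Further: peak tail current of the secondary pulse compared with the same well before compound.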

human ether-à-go-go-related gene (hERG) potassium channel, sequence (Q12809 whole entry, looked up): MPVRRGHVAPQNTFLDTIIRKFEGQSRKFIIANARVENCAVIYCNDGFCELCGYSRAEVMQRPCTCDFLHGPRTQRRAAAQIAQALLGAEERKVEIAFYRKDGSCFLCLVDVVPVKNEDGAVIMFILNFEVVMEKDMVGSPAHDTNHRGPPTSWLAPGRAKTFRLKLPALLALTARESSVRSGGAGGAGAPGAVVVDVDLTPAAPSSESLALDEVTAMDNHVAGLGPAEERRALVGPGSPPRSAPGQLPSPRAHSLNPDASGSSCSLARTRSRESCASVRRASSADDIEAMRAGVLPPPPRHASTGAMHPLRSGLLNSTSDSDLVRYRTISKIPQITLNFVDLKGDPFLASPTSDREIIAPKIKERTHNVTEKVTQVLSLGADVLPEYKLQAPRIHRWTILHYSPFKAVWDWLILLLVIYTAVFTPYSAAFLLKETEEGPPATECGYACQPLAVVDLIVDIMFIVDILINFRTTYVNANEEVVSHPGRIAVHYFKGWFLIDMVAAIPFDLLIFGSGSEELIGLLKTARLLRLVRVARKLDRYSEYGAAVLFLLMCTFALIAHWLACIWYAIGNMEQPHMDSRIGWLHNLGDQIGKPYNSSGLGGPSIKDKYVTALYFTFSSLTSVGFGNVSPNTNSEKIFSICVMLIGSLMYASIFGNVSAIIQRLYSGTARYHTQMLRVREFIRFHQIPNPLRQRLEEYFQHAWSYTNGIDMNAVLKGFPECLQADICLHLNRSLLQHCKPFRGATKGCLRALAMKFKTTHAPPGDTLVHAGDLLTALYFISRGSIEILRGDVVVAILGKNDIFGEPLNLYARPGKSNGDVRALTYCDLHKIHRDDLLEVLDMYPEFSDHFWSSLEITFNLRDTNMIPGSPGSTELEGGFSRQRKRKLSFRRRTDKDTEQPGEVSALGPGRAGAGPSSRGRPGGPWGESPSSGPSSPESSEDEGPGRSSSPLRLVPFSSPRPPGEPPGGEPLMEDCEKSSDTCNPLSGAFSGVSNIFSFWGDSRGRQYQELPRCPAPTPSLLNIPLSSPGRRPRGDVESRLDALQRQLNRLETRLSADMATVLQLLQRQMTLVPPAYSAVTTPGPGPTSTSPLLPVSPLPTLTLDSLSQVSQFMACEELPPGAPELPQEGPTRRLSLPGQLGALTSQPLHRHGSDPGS

| SMILES | hERG current change (%, negative = inhibition) at 10uM [%] |
| --- | --- |
| O=C(CSc1nnnn1-c1ccc(F)cc1)Nc1ccccc1F | 16 |
| CCOC(=O)c1nnn(-c2nonc2N)c1CN(C)Cc1ccccc1 | -3.78 |
| CCOc1ccc2oc(C(=O)N3CCN(c4ccccn4)CC3)c(C)c2c1 | -34.3 |
| O=C(NC1CCCC1)c1ccc(Cl)c(S(=O)(=O)N2CCOCC2)c1 | -27.2 |
| CC(NC(=O)Nc1cccnc1)(C(F)(F)F)C(F)(F)F | 5.1 |
| CN1CCN(c2ccc(F)cc2N)CC1 | 23.3 |
| C=CCn1c(SCc2ccc(C(=O)Nc3ccccc3)cc2)nnc1-c1ccccc1 | -5.06 |
| CCCN1C(=O)c2ccccc2NC1c1ccc(Cl)c(Cl)c1 (stereo not shown) | 6.85 |
| Nn1c(SCC(=O)NC(=O)Nc2ccc3c(c2)OCCO3)nnc1C1CC1 | 14.3 |
| CCC(C)NS(=O)(=O)c1ccc(OCC(=O)N2CCCCC2)cc1 (stereo not shown) | 2.66 |
| Cc1ccc(O)c(-c2cc(C(=O)Nc3ccc(S(=O)(=O)Nc4nccc(C)n4)cc3)[nH]n2)c1 | 6.81 |
| O=C(Nc1ccc2oc(-c3ccncc3)nc2c1)c1ccc(F)cc1 | -23.9 |
| COc1ccc(CCNC(=O)Cn2nnc(C(=O)Nc3cccc(C)c3C)c2N)cc1OC | 12.9 |
| CC(=O)Nc1ccc(S(=O)(=O)N2CCN(CCC#N)CC2)cc1 | 17.2 |
| CCn1cc(/C=C(\NC(=O)c2ccc(OC)c(OC)c2)C(=O)N2CCN(C)CC2)c2ccccc21 | -32.8 |
| C/C(=N\OCc1nc2ccccc2c(=O)n1/N=C/c1cc([N+](=O)[O-])ccc1O)c1ccccc1 | 1.69 |
| CCN(C(=O)CSc1nnc(-c2ccccc2Br)o1)C1CCS(=O)(=O)C1 (stereo not shown) | -16.3 |
| Cc1ccsc1C(=O)N(C)C1CCS(=O)(=O)C1 (stereo not shown) | -1.25 |
| Cc1ccc(-c2nnc(SCC(=O)N/N=C/c3ccc(C(=O)O)cc3)n2C2CCCCC2)cc1 | 13.4 |
| CCC1CCCCN1S(=O)(=O)c1ccc(NC(=O)C2CCCO2)cc1 (stereo not shown) | -8.34 |
| Cc1cc(N2C(=O)C(O)=C(C(=O)c3cccs3)C2c2ccccc2)no1 (stereo not shown) | -5.34 |
| CCCc1nnc(NC(=O)CC(C)c2ccccc2)s1 (stereo not shown) | 2.66 |

| SMILES | hERG current change (%, negative = inhibition) at 10uM [%] |
| --- | --- |
| Cc1nc(-c2ccncc2)nc(NCCNc2ncccc2C(F)(F)F)c1Cl | 6.57 |
| COc1cc(/C=C2\SC(=O)NC2=O)ccc1OCc1ccc(Cl)nc1 | 26.2 |
| CCOC(=O)c1nc(N)c(=O)n(-c2ccc(C)cc2)n1 | 17.8 |
| CN(C(=O)Cn1c(=O)oc2cc(S(=O)(=O)N3CCCC3)ccc21)C1CCCCC1 | 37.1 |
| CS(=O)(=O)N1CCCC(C(=O)Nc2ccc(F)c(F)c2)C1 (stereo not shown) | 9.55 |
| Cc1ccc(C(=O)N/C(=C\c2ccccc2)C(=O)NCc2ccncc2)cc1 | -71.2 |
| COc1cc(S(=O)(=O)Nc2cc(C)cc(C)c2)ccc1F | -48.3 |
| CCN(CC)C(=O)CSc1ncnc2c(-c3cccs3)nsc12 | 4.67 |
| CN(C)S(=O)(=O)c1ccc(NC(=O)c2c(F)cccc2Cl)cc1 | -0.755 |
| O=c1oc(Nc2cccc(F)c2)nc2ccccc12 | 2.1 |
| Cc1ccc(C)c2[nH]c(=O)c(CN(CCN3CCOCC3)Cc3nnnn3CC3CCCO3)cc12 (stereo not shown) | -15.8 |
| CCn1c(CNC(=O)COc2ccc(C(C)C)cc2)nnc1SCC(=O)Nc1ccccc1C(C)C | -55.1 |
| CC(C)CCN1CCN(CC(c2ccccc2)c2ccccc2)CC1CCO (stereo not shown) | -82.3 |
| O=C(NCc1cccnc1)C(=O)NCC1OCCCN1S(=O)(=O)c1ccccc1 (stereo not shown) | 18.6 |
| O=c1sc(Nc2ccccc2)nc2ccsc12 | -5.98 |
| CCOc1ccc(C(=O)Nc2ccc(S(=O)(=O)Nc3nccc(C)n3)cc2)cc1OCC | -6.53 |
| O=C(COc1ccccc1)Nc1c2c(nn1-c1ccccc1)CS(=O)C2 (stereo not shown) | -1.23 |
| CC(=O)c1cc2c(cc1NC(=O)c1ccco1)OCCO2 | 12.1 |
| COC(=O)c1ccc(NC(=S)N2CCN(C(=O)c3ccco3)CC2)cc1 | -4.94 |
| COc1cccc(CN(C)C(=O)c2sccc2-c2ccccc2)c1OC | -14 |
| Cc1cccnc1-n1c(CCN2C(=O)c3ccccc3C2=O)nc2ccccc2c1=O | 4.82 |
| O=C1c2ccccc2C(=O)N1c1cccnc1 | 2.01 |

| SMILES | hERG current change (%, negative = inhibition) at 10uM [%] |
| --- | --- |
| COc1ccc(-n2c(C)cc(C(=O)COc3ccc(C)nc3[N+](=O)[O-])c2C)cc1 | -22.8 |
| CC(=O)c1ccc(OCC(=O)N2CCCC(N(C)Cc3ccccc3)C2)cc1 (stereo not shown) | -29.1 |
| CCOCCCn1c(SCC(=O)Nc2ccc3[nH]c(=O)[nH]c3c2)nc2ccccc2c1=O | 7.61 |
| COc1ccc(CCNC(=O)C2CCN(S(C)(=O)=O)CC2)cc1 | -9.7 |
| CCCn1c(SCCc2ccccc2)nc2c1c(=O)[nH]c(=O)n2C | -14.4 |
| O=C(NCCN1CCCCC1)Nc1ccccc1Cl | 19.7 |
| O=C(CN1C(=O)C2C3C=CC(C3)C2C1=O)Nc1nc(-c2ccccn2)cs1 (stereo not shown) | 2.18 |
| CC(C)c1[nH]nc2c1C(c1cccnc1)C(C#N)=C(N)O2 (stereo not shown) | 3.28 |
| CC(C)CC(=O)Nc1nc2c(c(=O)[nH]1)CCCC2 | 17.9 |
| O=C(CCNC(=O)c1ccccc1Cl)Nc1ccc2c(c1)OCO2 | 9.88 |
| FC(F)(F)c1cc(-c2ccccc2)nc(NCc2cccnc2)n1 | -1.1 |
| COc1cc(/C=C/C(=O)OCC(=O)N2CCc3ccccc3C2)ccc1O | -16.3 |
| CCN(CC)C(=O)CN1C(=O)c2cccc3cccc(c23)C1=O | 9.78 |
| COc1ccccc1C(=O)Nc1cccc2cccnc12 | 10.7 |
| O=C1CC(c2ccccc2F)C2=C(COC2=O)N1 (stereo not shown) | 1.43 |
| CCOc1ccccc1NC(=O)CSc1nnc(CNC(=O)c2c(F)cccc2Cl)o1 | -8.82 |
| Cc1noc(C)c1CC(=O)N1CCCC(N2CCN(c3ccccc3F)CC2)C1 (stereo not shown) | 3.91 |
| CC1=CC(C)C(/C=N/n2cnnc2)C(C)C1 (stereo not shown) | -3.91 |
| CC1CCCN(c2ccc([N+](=O)[O-])cc2C(=O)c2ccccc2)C1 (stereo not shown) | -6.64 |
| CCOc1ccc(NC(=O)C2C3CCC4C(CCC32)C4(Cl)Cl)cc1 (stereo not shown) | 14.5 |
| c1ccc(CSc2nnnn2-c2ccc3c(c2)OCCO3)nc1 | -2.3 |
| CC1CC(=O)N(c2ccc(N(C)Cc3ccccc3)c([N+](=O)[O-])c2)C1=O (stereo not shown) | -10.9 |

| SMILES | hERG current change (%, negative = inhibition) at 10uM [%] |
| --- | --- |
| Cc1ccc(SCc2nc3ccccc3n2CC(=O)Nc2ccc(Cl)cc2)cc1 | -8.31 |
| O=c1c2ccccc2nc(N2CCCC2)n1-c1ccc(Cl)cc1 | -3.18 |
| FC(F)(F)c1ccnc(N2CCN(Cc3cnc(-c4ccccc4)[nH]3)CC2)c1 | -34.2 |
| CCOC(=O)N1CCC(NC(=O)c2cc(C(=O)NC3CCCC3)ccc2CO)CC1 | 12.9 |
| Cc1cc(NC(=O)c2ccc3c(c2)OCCO3)ccc1NC(=O)c1cc2ccccc2o1 | 1.3 |
| Cc1ccc(C(=O)/C=C/Nc2ccccc2C(N)=O)cc1 | 13 |
| Cc1noc(C)c1COC(=O)[C@H](C)NS(=O)(=O)c1ccc(Cl)c(Cl)c1 | -29.2 |
| CN(C1CCCCC1)S(=O)(=O)c1ccc(C(=O)O)cc1 | 7.49 |
| COc1ccc(OCC(=O)Nc2ccc(NC(=O)c3ccccc3Cl)c(OC)c2)cc1 | -17.4 |
| O=C(NN=C1CCCC1)C(=O)Nc1cccc(C(F)(F)F)c1 | 4.28 |
| COc1ccc(N(Cc2ccccc2)N=O)cc1 | -23.3 |
| CC1CCCC(C)N1/N=C/c1ccc(O)cc1 (stereo not shown) | 8.87 |
| CC(C)c1noc2ncc(C(=O)c3cc(Cl)cc(Cl)c3O)cc12 | 19 |
| COC(=O)C1=C(c2ccc(OC(F)(F)F)cc2)C[C@@H]2CC[C@H]1N2C(=O)NCc1cccc2ccccc12 | 20.4 |
| COc1ccc(C(=O)NCC(=O)c2ccccc2)cc1 | 13.8 |
| CSCC[C@H](NC(=O)c1ccco1)c1nnc2ccccn12 | 7.31 |
| Cc1cccc(N2C(=O)CS/C2=N\NC(=O)c2ccc(Br)cc2)c1C | -0.819 |
| COc1cccc(C(=O)NNC(=O)C(=O)Nc2cccc3ccccc23)c1 | 18.1 |
| Cc1ccc(C2=NN(CCC(=O)NC3CCCC3)C(=O)CC2)cc1 | -48.1 |
| O=C(C1=C[C@H](C2CC2)C[C@H](OCCCCO)O1)N1CCOCC1 | 21.2 |
| CC(C)c1c(C(=O)N/N=C/c2ccc(OCc3ccc(F)cc3)cc2)nnn1-c1nonc1N | 15.5 |
| CN1CCN(C(=S)NC(=O)c2cccc(S(=O)(=O)N(C)C)c2)CC1 | 18.6 |
